The target of test [1] is T1, FLAG-tagged allantoinase AllB (AllB-Flag), expressed from the chromosomal allB gene under its native promoter (E. coli) (UniProt P77671).
T1 sequence: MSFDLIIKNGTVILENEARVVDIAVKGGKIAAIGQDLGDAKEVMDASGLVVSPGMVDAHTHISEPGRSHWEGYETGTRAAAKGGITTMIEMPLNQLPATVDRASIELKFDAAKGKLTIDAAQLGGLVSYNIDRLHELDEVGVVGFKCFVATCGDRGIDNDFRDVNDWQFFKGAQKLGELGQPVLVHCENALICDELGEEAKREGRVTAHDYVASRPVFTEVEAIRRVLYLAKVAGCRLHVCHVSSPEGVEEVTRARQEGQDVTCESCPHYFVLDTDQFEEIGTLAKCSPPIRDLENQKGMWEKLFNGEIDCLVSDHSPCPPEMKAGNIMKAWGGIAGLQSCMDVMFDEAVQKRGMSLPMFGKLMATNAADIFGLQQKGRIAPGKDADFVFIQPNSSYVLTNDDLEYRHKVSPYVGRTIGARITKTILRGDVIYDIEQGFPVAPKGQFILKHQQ
Description: condition: only cells treated with allantoin (2 mM) and not with glyoxylate; co-IP; AllB-Flag precipitated with anti-FLAG magnetic beads (µMACS) from lysate of E. coli DY330; cells treated with 2 mM allantoin for 2 h; His-tagged prey detected by anti-His blot.

Test [2] addresses T1, FLAG-tagged allantoinase AllB (AllB-Flag), expressed from the chromosomal allB gene under its native promoter (E. coli). Kind of test: co-IP; AllB-Flag precipitated with anti-FLAG magnetic beads (µMACS) from lysate of E. coli DY330; untreated cells (no glyoxylate, no allantoin); His-tagged prey detected by anti-His blot.
The target is the same in test [3]. Description: co-IP; AllB-Flag precipitated with anti-FLAG magnetic beads (µMACS) from lysate of E. coli DY330; cells treated with 0.7 mM glyoxylate for 2 h; His-tagged prey detected by anti-His blot.
Test [4] shares this target. Description: co-IP; AllB-Flag precipitated with anti-FLAG magnetic beads (µMACS) from lysate of E. coli DY330; cells treated with 2 mM allantoin for 2 h; His-tagged prey detected by anti-His blot.
Test [5] has the same target. Kind of test: condition: only cells treated with neither glyoxylate nor allantoin; co-IP; AllB-Flag precipitated with anti-FLAG magnetic beads (µMACS) from lysate of E. coli DY330; untreated cells (no glyoxylate, no allantoin); His-tagged prey detected by anti-His blot.

No constants are given. Whether binding was seen depends on the method and setting. Binding seen in cells or lysates may run through a third protein. Some binding calls cover weakened binding; strength is not graded here. Sequences can lack the tags named with a protein.

B1: His6-tagged putative allantoin transporter YbbW, renamed AllW (AllW-His6) (protein, UniProt P75712 1-484)
chain: MEHQRKLFQQRGYSEDLLPKTQSQRTWKTFNYFTLWMGSVHNVPNYVMVGGFFILGLSTFSIMLAIILSAFFIAAVMVLNGAAGSKYGVPFAMILRASYGVRGALFPGLLRGGIAAIMWFGLQCYAGSLACLILIGKIWPGFLTLGGDFTLLGLSLPGLITFLIFWLVNVGIGFGGGKVLNKFTAILNPCIYIVFGGMAIWAISLVGIGPIFDYIPSGIQKAENGGFLFLVVINAVVAVWAAPAVSASDFTQNAHSFREQALGQTLGLVVAYILFAVAGVCIIAGASIHYGADTWNVLDIVQRWDSLFASFFAVLVILMTTISTNATGNIIPAGYQIAAIAPTKLTYKNGVLIASIISLLICPWKLMENQDSIYLFLDIIGGMLGPVIGVMMAHYFVVMRGQINLDELYTAPGDYKYYDNGFNLTAFSVTLVAVILSLGGKFIHFMEPLSRVSWFVGVIVAFAAYALLKKRTTAEKTGEQKTIG
In the case of B1, the binding entry is reported as “no binding” in test [1], “no binding (condition: cells not treated with glyoxylate)” in test [2] and “binds” in test [3].

B2: His-tagged glycerate 2-kinase GlxK overproduced from the ASKA collection (GlxK-His) (enzyme, UniProt P77364 1-381)
chain: MKIVIAPDSFKESLSAEKCCQAIKAGFSTLFPDANYICLPIADGGEGTVDAMVAATGGNIVTLEVCGPMGEKVNAFYGLTGDGKTAVIEMAAASGLMLVAPEKRNPLLASSFGTGELIRHALDNDIRHIILGIGGSATVDGGMGMAQALGVRFLDADGQALAANGGNLARVASIEMDECDPRLANCHIEVACDVDNPLVGARGAAAVFGPQKGATPEMVEELEQGLQNYARVLQQQTEINVCQMAGGGAAGGMGIAAAVFLNADIKPGIEIVLNAVNLAQAVQGAALVITGEGRIDSQTAGGKAPLGVASVAKQFNVPVIGIAGVLGDGVEVVHQYGIDAVFSILPRLAPLAEVLASGETNLFNSARNIACAIKIGQGIKN
Consider B2, for which the binding entry in test [4] was “binds”; in test [5], “no binding”; in test [3], “binds”.

(Values after article PMC10163214, “E. coli allantoinase is activated by the downstream metabolic enzyme, glycerate kinase, and stabilizes the putative allantoin transporter by direct binding” (Scientific Reports, 2023).)
